Measured values: a collection of fitness landscapes (doi:10.1016/j.celrep.2020.107928)
Over roughly 81,000 sequences, “one-hybrid fitness for binding parS DNA” has its median near -0.17; the highest 2% begin near 0.51. Some of the results follow.

B1: Caulobacter ParB omega fusion; a variant is named by its letters at X, in order, B8GW30 (parent)
chain: MESVVVGEPGMSEGRRGLGRGLSALLGEVDAAPAQAPGEQLGGSREAPIEILQRNPDQPRRTFREEDLEDLSNSIREKGVLQPILVRPSPDTAGEYQIVAGERAWRAAQRAGLKTVPIMVRELDDLAVLEIGIIENVQRADLNVLEEALSYKVLMEKFERTQENIAQTIGKSXSHVANXMRLLXLPDEVQSYLVSGELTAXHARAIAAAADPVALAKQIIEGGLSVRETEALARKAPNLSAGKSKGGRPPRVKDTDTQALESDLSSVLGLDVSIDHRGSTGTLTITYATLEQLDDLCNRLTRGI

Variants of: B1
Assay: one-hybrid fitness for binding parS DNA (scaled: cognate 1, non-cognate 0); higher = stronger binding
Conditions: with parS DNA site
Procedure, shortened: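 On M9-minus-histidine containing 0.1 mM IPTG and 5 mM 3-AT, E. coli USO cells with a HIS3 reporter, site 19 bp from the promoter, grew 48 hours at 37°C to select Caulobacter ParB libraries randomised at four specificity codons. Plasmids from before and after were Illumina-sequenced, with three replicate libraries pooled and variants under 10 reads left out. Fitness is the log change in variant-to-wild-type read ratio, rescaled against cognate and non-cognate.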

one-hybrid fitness for binding parS DNA, 0.231:
RQHF

one-hybrid fitness for binding parS DNA, 0.97:
RSTC

one-hybrid fitness for binding parS DNA, ≤ 0.2:
HLIF
EARQ
SIDG
QGHC
YPWV
NIHC
AAWT
CKGG
IDKR
DKFG
ACRP
TSIP
LRMF
GPKL
YRLT
INQT
SRSP
RNGW
SYAD
STDG
LLHQ
KPIF
YPFT
SSTT
CQEI
PHRI
SFRV
WVGM
RLGD
FTNN
RMRR
DAGN
MDAM
PQAG
VGKH
TRMM
TCHT
KLPN
QYER
AWLA
TMKR
ASNP
QYWH
VVPW
SCVQ
ELMI
GWDN
FTGY
LCSD
CGAQ
NYKP
KRCF
QSLN
EIRL
QILL
VQYL
TPMY
MYDR
TIAW
GHTC
SRCI
YLIF
PELK
PFNT
AVTW
SWAD
VRYA
TNSM
TGIL
CRRI
YLMA
ESGV
RMYD
KKAY
ARRF
YGGR
NRNY
YIMS
PYRW
SLYG
MDGS
CKED
GSTQ
CTKL
YEER
PRHS
DPNA
MDTG
QTKN
CEQR
LVLR
WHAF
KMTD
THHN
PMMR
AIQC
YQSG
LDNL
YEAT
SGWR
WIRS
NHIC
QCAA
GRFL
GVAY
FLVS
VPAL
VTNV
CRGW
EDLF
TSPE
PQYS
INYR
ILLN
YPYA
KVDT
QCTQ
QHCK
RPVT
DFTR
RNHE
SSIG
WQMS
YMFS
QDYG
CNVT
ETYY
PWLC
KENH
CKHR
SCWE
YDKV
QHVL
PASA
GMCN
PSYE
NAHP
AQLF
LCKG
AEIR
KMAG
IAHV
LFCC
KRML
QPDV
PDQG
ACPI
IQSG
VISN
CSES
QDTG
GAGV
PKPH
QANL
QWDL
YDHT
GILR
GPAS
DMNM
SHRK
YRKR
PATC
DFQS
NHNR
QMYG
VCPW
PVAW
LMMG
PVMF
QKHA
RRDQ
CTTL
VPYT
QILP
AGLR
AYRK
LTTA
YSHC
HWVQ
YQNG
TAVT
AISD
QRCA
QPIT
AKCC
HDAV
VKFR
HHDR
LDTM
KNNG

one-hybrid fitness for binding parS DNA, 0.6:
RMTA

one-hybrid fitness for binding parS DNA, 0.448:
REKC

one-hybrid fitness for binding parS DNA, 0.429:
RWSA
